This is one part of the list. Most values come without repeats; read them as rough.
Each compound was assayed on IPC-298 (assay: cell count relative to DMSO control; melanoma cells; higher = more viable cells). Settings: library dose: standard library concentration; 72 h.
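Also: cells treated in 1,536-well plates, then fixed and DAPI-stained, with nuclei counted from automated high-throughput microscope images.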

| SMILES | cell count [%] |
| --- | --- |
| CN1CCN(c2ccc3nc(-c4c(N)c5c(F)cccc5[nH]c4=O)[nH]c3c2)CC1 [Dovitinib] + COc1cc2ncnc(Nc3ccc(Oc4ccccc4)cc3)c2cc1OC [SrcI1] (first compound 0.5 µM, partner dose 10 µM) | 56.6 |
| CNC(=O)c1cc(Oc2ccc(NC(=O)Nc3ccc(Cl)c(C(F)(F)F)c3)cc2)ccn1 [sorafenib] + COc1cc2ncnc(Nc3ccc(Oc4ccccc4)cc3)c2cc1OC [SrcI1] (first compound 2 µM, partner dose 10 µM) | 79.6 |
| CS(=O)(=O)CCNCc1ccc(-c2ccc3ncnc(Nc4ccc(OCc5cccc(F)c5)c(Cl)c4)c3c2)o1 [lapatinib] + COc1ccc(COc2ccc(Cc3cnc(N)nc3N)cc2OC)cc1 [GW2580] (first compound 4 µM, partner dose 5 µM) | 74 |
| CN1CCN(c2ccc3nc(-c4c(N)c5c(F)cccc5[nH]c4=O)[nH]c3c2)CC1 [Dovitinib] + COc1ccc(COc2ccc(Cc3cnc(N)nc3N)cc2OC)cc1 [GW2580] (first compound 0.5 µM, partner dose 5 µM) | 77.8 |
| C[C@@H](Oc1cc(-c2cnn(C3CCNCC3)c2)cnc1N)c1c(Cl)ccc(F)c1Cl [Crizotinib] + c1cc(-c2cnn3cc(-c4ccc(OCCN5CCCCC5)cc4)cnc23)ccn1 [Dorsomorphin] (first compound 1 µM, partner dose 2 µM) | 82.8 |
| C=CCNC1=C2C[C@@H](C)C[C@H](OC)[C@H](O)[C@@H](C)/C=C(\C)[C@H](OC(N)=O)[C@@H](OC)/C=C\C=C(/C)C(=O)NC(=CC1=O)C2=O [Tanespimycin] + Cc1cc([N+](=O)[O-])ccc1NS(=O)(=O)c1cc(Cl)ccc1Cl [FH535] (first compound 0.01 µM, partner dose 5 µM) | 49.7 |
| C=CCNC1=C2C[C@@H](C)C[C@H](OC)[C@H](O)[C@@H](C)/C=C(\C)[C@H](OC(N)=O)[C@@H](OC)/C=C\C=C(/C)C(=O)NC(=CC1=O)C2=O [Tanespimycin] + C[C@]1(c2nc3c(C(N)=O)cccc3[nH]2)CCCN1 [Veliparib] (first compound 0.01 µM, partner dose 7 µM) | 83.9 |

— the supplement of paper PMC4604168 (melanoma cell lines)
